Consider 40 sequences from the supplement of paper PMC6531468.

The other results are listed elsewhere or left out. Values come from read counts of a selection and are noisy. Each score is taken over the longer molecules that contain the sequence shown.

Chain of IMP3 KH1-4 (chain, as listed by the source): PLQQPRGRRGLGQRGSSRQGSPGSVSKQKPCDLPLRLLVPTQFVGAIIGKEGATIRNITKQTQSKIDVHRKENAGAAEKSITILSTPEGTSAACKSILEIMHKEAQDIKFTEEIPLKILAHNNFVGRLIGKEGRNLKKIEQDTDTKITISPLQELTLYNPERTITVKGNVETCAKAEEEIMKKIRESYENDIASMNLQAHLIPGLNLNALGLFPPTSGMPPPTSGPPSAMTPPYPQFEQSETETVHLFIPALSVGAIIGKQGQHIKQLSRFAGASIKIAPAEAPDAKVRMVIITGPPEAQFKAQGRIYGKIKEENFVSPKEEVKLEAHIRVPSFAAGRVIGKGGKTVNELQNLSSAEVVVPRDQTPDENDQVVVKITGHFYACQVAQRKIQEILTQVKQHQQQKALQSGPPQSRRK

The test system of the experiment is IMP3 KH1-4. Nature of the experiment: 6-mer SELEX enrichment z-score vs GST control; IMP3 is the RNA-binding protein IGF2BP3; higher = more enriched by binding. Particulars: construct: KH1-4 (164-579); SELEX round: R4. As for the experimental part:
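SELEX-seq with GST-tagged IMP3 KH1-4 (Pro164-Lys579) and an N40 RNA pool, round 4. 6-mer z-score of sequence-tag enrichment normalised to the corresponding GST SELEX round; RNA k-mers written as DNA (T for U).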
For TATGGC, the “6-mer SELEX enrichment z-score” value amounted to 0.831.

In the case of ACCTCC, the “6-mer SELEX enrichment z-score” value is -0.703.

On to GGGGCG, for which the “6-mer SELEX enrichment z-score” value is 0.837.

With TCAAAA, the “6-mer SELEX enrichment z-score” value was -0.988.

Take TCTAGG: the “6-mer SELEX enrichment z-score” value was -0.116.

ATTTTT: the “6-mer SELEX enrichment z-score” value was 1.22.

As for GTAGGA, the “6-mer SELEX enrichment z-score” value is -0.369.

As to ACTTAA, the “6-mer SELEX enrichment z-score” value amounted to 0.793.

On to GCGAGG, for which the “6-mer SELEX enrichment z-score” value is -0.336.

Turning to AGGGGT, the “6-mer SELEX enrichment z-score” value turned out to be 0.492.

For the sequence TCGTCT, the “6-mer SELEX enrichment z-score” value is -0.15.

Regarding AAAGGA, the “6-mer SELEX enrichment z-score” value amounted to 0.468.

With TGGGTT, the “6-mer SELEX enrichment z-score” value came out at 0.162.

On to CGTGAA, for which the “6-mer SELEX enrichment z-score” value is -0.363.

For ACGCAG, the “6-mer SELEX enrichment z-score” value is 0.072.

Take TTAAGT: the “6-mer SELEX enrichment z-score” value was 0.374.

Consider CACGAC, for which the “6-mer SELEX enrichment z-score” value is -0.587.

On to GTAGAA, for which the “6-mer SELEX enrichment z-score” value was -0.804.

Take GACACA: the “6-mer SELEX enrichment z-score” value worked out at 1.19.

GGACCA: the “6-mer SELEX enrichment z-score” value was -0.283.

On to CGTATG, for which the “6-mer SELEX enrichment z-score” value is -0.723.

Regarding CAGCAA, the “6-mer SELEX enrichment z-score” value turned out to be 0.287.

TACAAG: the “6-mer SELEX enrichment z-score” value was 0.416.

As to GCTAAA, the “6-mer SELEX enrichment z-score” value is -0.32.

Take AACCGC: the “6-mer SELEX enrichment z-score” value is -0.542.

For GCTGAG, the “6-mer SELEX enrichment z-score” value was -0.747.

With TGATCG, the “6-mer SELEX enrichment z-score” value is -0.073.

Regarding CGCCCC, the “6-mer SELEX enrichment z-score” value is -0.205.

CAAACG: the “6-mer SELEX enrichment z-score” value was -1.87.

As for GGTTGT, the “6-mer SELEX enrichment z-score” value is -0.003.

For the sequence TTGTAC, the “6-mer SELEX enrichment z-score” value was found to be 0.009.

Take AGATCT: the “6-mer SELEX enrichment z-score” value was -0.024.

TCGCTG: the “6-mer SELEX enrichment z-score” value was -0.05.

With ACCAAG, the “6-mer SELEX enrichment z-score” value is -1.31.

As to ATTGTT, the “6-mer SELEX enrichment z-score” value turned out to be 0.602.

On to GAACTC, for which the “6-mer SELEX enrichment z-score” value was -1.04.

For the sequence TCGCTT, the “6-mer SELEX enrichment z-score” value was found to be 0.278.

Turning to GGACTT, the “6-mer SELEX enrichment z-score” value stood at 0.002.

With TGTTTG, the “6-mer SELEX enrichment z-score” value is 0.136.

For the sequence CTTTGT, the “6-mer SELEX enrichment z-score” value is 0.152.
